According to PMC7819943, “Rice protein-binding microarrays: a tool to detect cis-acting elements near promoter regions in rice”:
This is one part of the list.

What follows are sequences tested against T1, OsWOX13 (Oryza sativa, UniProt Q5QMM3 1-267) (assay: protein-binding microarray (RPBM); PBS, 2% BSA, 51.3 ng/ul salmon testes DNA, 50 uM zinc acetate, 200 nM TF, 25 C, 1 h; high values mean tight binding). Settings: protein: recombinant; tags: N-terminal polyhistidine and DsRed monomer fusion (pET32a); label: CyDye5-dUTP incorporated in the synthesized complementary strand; 3' TTTTT single-stranded linker to array surface; dsDNA, one strand shown.
T1 sequence: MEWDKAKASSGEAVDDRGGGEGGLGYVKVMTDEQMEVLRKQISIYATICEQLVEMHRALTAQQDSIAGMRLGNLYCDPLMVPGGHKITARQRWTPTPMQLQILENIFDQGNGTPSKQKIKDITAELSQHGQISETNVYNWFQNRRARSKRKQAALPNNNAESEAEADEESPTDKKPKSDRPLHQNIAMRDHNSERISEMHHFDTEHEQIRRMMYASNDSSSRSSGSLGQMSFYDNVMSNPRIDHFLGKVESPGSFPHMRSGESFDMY
How it was run: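 A custom Agilent array was converted to double-stranded form by primer extension with Cy5-dUTP and blocked with 2% BSA. Protein at 200 nM in PBS with 2% BSA, salmon testes DNA and 50 µM zinc acetate was applied for 1 h at 25 °C, followed by washing. The proteins were polyhistidine–DsRed N-terminal fusions of transcription factors, expressed in E. coli BL21-CodonPlus and Ni–NTA-purified. The binding signal is per-feature fluorescence intensity (arbitrary units) from an Axon 4000B scanner.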

Sequence	binding signal
TTGTGCTTTCCATCCAATTGATTATATGTTTATGGTGTCACGGAGTCACCTAGTGCAG	7290 fluorescence intensity (a.u.)
AGTCGTCAATCACCACAACGCCATCTTCTTCTCGTTAGGTCGGAGTCACCTAGTGCAG	23500 fluorescence intensity (a.u.)
AAAAGGGTAATTTTACAATTTTAACAAGGTATCATAAGGTCGGAGTCACCTAGTGCAG	3730 fluorescence intensity (a.u.)
GCGCTGATGTACATCACTTCCAAATTTGGTGTCATTCTTGCGGAGTCACCTAGTGCAG	4920 fluorescence intensity (a.u.)
TTGATTAAATTTAAACAAGTTTGTTAGTAAAAGCGAATTACGGAGTCACCTAGTGCAG	28200 fluorescence intensity (a.u.)
CATCACACATAATTACATACTTCCTCCGTTTTATAATGTACGGAGTCACCTAGTGCAG	4930 fluorescence intensity (a.u.)
GCAATAAACAGAATGTTTCCTTTCAAACAGAGTATTAAAACGGAGTCACCTAGTGCAG	4230 fluorescence intensity (a.u.)
TACTAATTTGATACTAGTGGTGGTGTCCGAGTCTGCTTTCCGGAGTCACCTAGTGCAG	29700 fluorescence intensity (a.u.)
TTAATTGTATTATGATGAAATCCGTGTCCATGCGGTTATGCGGAGTCACCTAGTGCAG	14700 fluorescence intensity (a.u.)
ACTTTATTGCCAAATTTGGTAAATACATAAGAAATCCTGGCGGAGTCACCTAGTGCAG	6740 fluorescence intensity (a.u.)
ACCATGATATTTGGTATGATTGGAACAAAGAAAGGACCAGCGGAGTCACCTAGTGCAG	22400 fluorescence intensity (a.u.)
ACTTTAATTAGTCGTGATCAATCAATCAATCTGAATCTGTCGGAGTCACCTAGTGCAG	65100 fluorescence intensity (a.u.)
CTCTTATTAATTAATTGCCGCCTGTTTTAGCTAGCCTTTGCGGAGTCACCTAGTGCAG	48800 fluorescence intensity (a.u.)
ATTTGTGGCTCATAATTTGTTCTTCATGATTACAGCTTGACGGAGTCACCTAGTGCAG	4040 fluorescence intensity (a.u.)
GATAATCAAATTATTAGTAAATATAGTTCGTCCTTAATTACGGAGTCACCTAGTGCAG	4540 fluorescence intensity (a.u.)
TTATTCTTGTTAATTAGTTTTAGGTGGCAAGATCTATGTCCGGAGTCACCTAGTGCAG	5470 fluorescence intensity (a.u.)
GTCACACCAATCATCGGCGGCTCTGCCATTGTACTCATGTCGGAGTCACCTAGTGCAG	6380 fluorescence intensity (a.u.)
ACCTTGGTGAAACACAAATTAATTACTCGCCCACGTAGATCGGAGTCACCTAGTGCAG	3810 fluorescence intensity (a.u.)
CCAGATTGAATTCCCCGACGAGAAATCCGCCACAGCCGCCCGGAGTCACCTAGTGCAG	38800 fluorescence intensity (a.u.)
GGACTAATTACGGCGGGCATTATCCACGGAAGAGGCCGCACGGAGTCACCTAGTGCAG	15100 fluorescence intensity (a.u.)
CTTAACCAATAATGTGCTAATGATTTACCTTCTTTACTATCGGAGTCACCTAGTGCAG	9150 fluorescence intensity (a.u.)

Sequence	binding signal
ATTAGCTAATATTTAATTAATCACACGTTAAACGCTGCTCCGGAGTCACCTAGTGCAG	8210 fluorescence intensity (a.u.)
CGACTGATTGGTTGGGGTCATGGTTGGAACAAAATTTCCTCGGAGTCACCTAGTGCAG	52800 fluorescence intensity (a.u.)
ACTGATAGACCGAGAAGAGGACGCTTGGCCGACCTTGAATCGGAGTCACCTAGTGCAG	9960 fluorescence intensity (a.u.)
GTTAACATTGTTCTTAAATTTGCTACTTGCACGAGCATTACGGAGTCACCTAGTGCAG	4140 fluorescence intensity (a.u.)
CCTAAATTTACTTAAGGAGTAGGGACTGGAGTAGAGTTGTCGGAGTCACCTAGTGCAG	10700 fluorescence intensity (a.u.)
GTGACTGATTGACAGTATCAACCATCTAGTGTTAAGATAGCGGAGTCACCTAGTGCAG	52800 fluorescence intensity (a.u.)
ATGCAAATTGGATGGTTGAGATTACGCGTGTCTGTCAGATCGGAGTCACCTAGTGCAG	12300 fluorescence intensity (a.u.)
TGTGTAATTGGGCCGGGCCCAAGAGGCCAAGTTTGTGATTCGGAGTCACCTAGTGCAG	7900 fluorescence intensity (a.u.)
CTTATGATTTTATTTAACCTGGTTTTGAAAGACAGGGGTTCGGAGTCACCTAGTGCAG	18100 fluorescence intensity (a.u.)
AATTAACGGAGGAAACTCCAATCAGATACGCAGACGGACACGGAGTCACCTAGTGCAG	8430 fluorescence intensity (a.u.)
TCGATTGGGGATTGGGGATTGGGGATCAGGAGGGATGGGGCGGAGTCACCTAGTGCAG	23300 fluorescence intensity (a.u.)
CAACTACATTTCCACTTGATTGGTATCGGATCGTCGATCTCGGAGTCACCTAGTGCAG	31300 fluorescence intensity (a.u.)
TAAGGTGATTTTAAATGTTTACTTCACACGTAGTACTGTTCGGAGTCACCTAGTGCAG	4540 fluorescence intensity (a.u.)
AAATTTGCAATTAGCCCTTAATTATAAGTTGTTTCTTCTTCGGAGTCACCTAGTGCAG	17900 fluorescence intensity (a.u.)
AACAGATGGGACGATGATTTGGCTAGATATTCGTCAAGATCGGAGTCACCTAGTGCAG	7340 fluorescence intensity (a.u.)
CAAACTGAATTGCACAAATTAAATCAAAACAGGAAACATTCGGAGTCACCTAGTGCAG	7520 fluorescence intensity (a.u.)
CCAATTTGACGTGAAATGTTTAGATGATCTCTTGCCAGTACGGAGTCACCTAGTGCAG	4560 fluorescence intensity (a.u.)
GGAGTAATTAATACCACCCATACGTATACATATATTCTCTCGGAGTCACCTAGTGCAG	8840 fluorescence intensity (a.u.)
GTTGATAACCCGATAATCATCGCGGCGCCAGTATTCGTCACGGAGTCACCTAGTGCAG	3780 fluorescence intensity (a.u.)
ACAACGGATAGACTGATAAATTCTGCAGGGCGCATTGAATCGGAGTCACCTAGTGCAG	4260 fluorescence intensity (a.u.)
CCCAATTAAACTACGGATTATAATTGCAGCTCAACCAATCCGGAGTCACCTAGTGCAG	21400 fluorescence intensity (a.u.)
